According to the supplement of paper PMC8728848:
This is one part of the list.

Columns and labels:
Experiment in all cases: glycan array binding signal (z-score within array); higher = stronger binding
Settings in all cases: glycan notation: IUPAC condensed, linker removed
Gal(a1-4)GlcNAc = target: Gal(a1-4)GlcNAc
Summary of the method: (§1)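 Negative Z-scores can be read as non-binding. The Z-score is calculated within each array and then averaged across arrays of one protein sequence at different concentrations or buffers and across linkers. Arrays, 3228 in all, were curated from the Consortium for Functional Glycomics database and kept only where the protein sequence was available.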

Gal(a1-6)Glc = target: Gal(a1-6)Glc
Summary of the method: as §1

Gal(b1-2)Gal = target: Gal(b1-2)Gal
Summary of the method: as §1

Gal(b1-3)Gal = target: Gal(b1-3)Gal
Summary of the method: as §1

Gal(b1-3)Gal(b1-4)GlcNAc = target: Gal(b1-3)Gal(b1-4)GlcNAc
Summary of the method: as §1

[1] = target: Gal(b1-3)Gal(b1-4)GlcNAc(b1-2)Man(a1-3)[Gal(b1-3)Gal(b1-4)GlcNAc(b1-2)Man(a1-6)]Man(b1-4)GlcNAc(b1-4)GlcNAc
Summary of the method: as §1

Gal(b1-3)GalNAc = target: Gal(b1-3)GalNAc
Summary of the method: as §1

[2] = target: Gal(b1-3)GalNAc(a1-3)[Fuc(a1-2)]Gal(b1-4)Glc
Summary of the method: as §1

[3] = target: Gal(b1-3)GalNAc(a1-3)[Fuc(a1-2)]Gal(b1-4)GlcNAc
Summary of the method: as §1

[4] = target: Gal(b1-3)GalNAc(b1-3)Gal(a1-4)Gal(b1-4)Glc
Summary of the method: as §1

[5] = target: Gal(b1-3)GalNAc(b1-4)Gal(b1-4)Glc
Summary of the method: as §1

[6] = target: Gal(b1-3)GalNAc(b1-4)[Neu5Ac(a2-3)]Gal(b1-4)Glc
Summary of the method: as §1

Gal(b1-3)GlcNAc = target: Gal(b1-3)GlcNAc
Summary of the method: as §1

[7] = target: Gal(b1-3)GlcNAc(a1-6)Gal(b1-4)GlcNAc
Summary of the method: as §1

[8] = target: Gal(b1-3)GlcNAc(b1-2)Man(a1-3)[Gal(b1-3)GlcNAc(b1-2)Man(a1-6)]Man(b1-4)GlcNAc(b1-4)GlcNAc
Summary of the method: as §1

[9] = target: Gal(b1-3)GlcNAc(b1-2)Man(a1-3)[Gal(b1-3)GlcNAc(b1-2)Man(a1-6)]Man(b1-4)GlcNAc(b1-4)[Fuc(a1-6)]GlcNAc
Summary of the method: as §1

[10] = target: Gal(b1-3)GlcNAc(b1-2)[Gal(b1-3)GlcNAc(b1-6)]Man(a1-6)[Gal(b1-3)GlcNAc(b1-2)Man(a1-3)]Man(b1-4)GlcNAc(b1-4)GlcNAc
Summary of the method: as §1

[11] = target: Gal(b1-3)GlcNAc(b1-3)Gal(b1-3)GlcNAc
Summary of the method: as §1

[12] = target: Gal(b1-3)GlcNAc(b1-3)Gal(b1-4)Glc
Summary of the method: as §1

[13] = target: Gal(b1-3)GlcNAc(b1-3)Gal(b1-4)GlcNAc
Summary of the method: as §1

[14] = target: Gal(b1-3)GlcNAc(b1-3)Gal(b1-4)GlcNAc(b1-6)[Gal(b1-3)GlcNAc(b1-3)]Gal(b1-4)Glc
Summary of the method: as §1

[15] = target: Gal(b1-3)GlcNAc(b1-3)Gal(b1-4)[Fuc(a1-3)]GlcNAc(b1-6)[Gal(b1-3)GlcNAc(b1-3)]Gal(b1-4)Glc
Summary of the method: as §1

[16] = target: Gal(b1-3)GlcNAc(b1-3)GalNAc
Summary of the method: as §1

[17] = target: Gal(b1-3)GlcNAc(b1-6)Gal(b1-4)GlcNAc
Summary of the method: as §1

[18] = target: Gal(b1-3)[Fuc(a1-4)]GlcNAc
Summary of the method: as §1

[19] = target: Gal(b1-3)[Fuc(a1-4)]GlcNAc(b1-2)Man(a1-3)[Gal(b1-3)[Fuc(a1-4)]GlcNAc(b1-2)Man(a1-6)]Man(b1-4)GlcNAc(b1-4)GlcNAc
Summary of the method: as §1

[20] = target: Gal(b1-3)[Fuc(a1-4)]GlcNAc(b1-2)Man(a1-3)[Gal(b1-3)[Fuc(a1-4)]GlcNAc(b1-2)Man(a1-6)]Man(b1-4)GlcNAc(b1-4)[Fuc(a1-6)]GlcNAc
Summary of the method: as §1

[21] = target: Gal(b1-3)[Fuc(a1-4)]GlcNAc(b1-3)Gal(b1-3)[Fuc(a1-4)]GlcNAc
Summary of the method: as §1

[22] = target: Gal(b1-3)[Fuc(a1-4)]GlcNAc(b1-3)Gal(b1-4)GlcNAc
Summary of the method: as §1

[23] = target: Gal(b1-3)[Fuc(a1-4)]GlcNAc(b1-3)Gal(b1-4)[Fuc(a1-3)]GlcNAc
Summary of the method: as §1

[24] = target: Gal(b1-3)[GlcNAc(b1-6)]GalNAc
Summary of the method: as §1

[25] = target: Gal(b1-3)[Neu5Ac(a2-6)]GalNAc
Summary of the method: as §1

[26] = target: Gal(b1-3)[Neu5Ac(a2-6)]GlcNAc(b1-6)Gal(b1-4)Glc
Summary of the method: as §1

[27] = target: Gal(b1-3)[Neu5Ac(b2-6)]GalNAc
Summary of the method: as §1

Gal(b1-4)Gal = target: Gal(b1-4)Gal
Summary of the method: as §1

[28] = target: Gal(b1-4)GalNAc(a1-3)[Fuc(a1-2)]Gal(b1-4)GlcNAc
Summary of the method: as §1

[29] = target: Gal(b1-4)GalNAc(b1-3)[Fuc(a1-2)]Gal(b1-4)GlcNAc
Summary of the method: as §1

Gal(b1-4)Glc = target: Gal(b1-4)Glc
Summary of the method: as §1

B1: BC2L-D C-terminal domain (Burkholderia cenocepacia), Q39MQ9_BURS3 (protein)
chain: LVIVDAVTLLSAYPEASRDPAAPTVIDGRHLYVVSPGDAAQLGHNDSRLFTGLSPGDQLHLRETALALRAEVSVLFIRFALKDAGIVAPIELEVRDAATAVPDADDLLHPSCRPLKDHYWRSDVLAAGATTCTADFAVCDRDGTVSGYFRWETSIEIAGSQPDTKQPGFKPSSDRNGNFSLPPNTAFKAIFYANAADRQDLKLFIDDAPEPAATFVGNSEDGVRLFTLNSKGGKIRIEASANGRQSATDARLAPLSAGDTVWLGWLGAEDGADADYNDGIVILQWPIT
glycan array binding signal (z-score) (Gal(a1-4)GlcNAc): -0.243 | glycan array binding signal (z-score) (Gal(a1-6)Glc): -0.242 | glycan array binding signal (z-score) (Gal(b1-2)Gal): -0.247 | glycan array binding signal (z-score) (Gal(b1-3)Gal): -0.242 | glycan array binding signal (z-score) (Gal(b1-3)Gal(b1-4)GlcNAc): -0.241 | glycan array binding signal (z-score) [1]: -0.229 | glycan array binding signal (z-score) (Gal(b1-3)GalNAc): -0.238 | glycan array binding signal (z-score) [2]: -0.236 | glycan array binding signal (z-score) [3]: -0.233 | glycan array binding signal (z-score) [4]: -0.238 | glycan array binding signal (z-score) [5]: -0.244 | glycan array binding signal (z-score) [6]: -0.242 | glycan array binding signal (z-score) (Gal(b1-3)GlcNAc): -0.241 | glycan array binding signal (z-score) [7]: -0.158 | glycan array binding signal (z-score) [8]: 0.233 | glycan array binding signal (z-score) [9]: -0.128 | glycan array binding signal (z-score) [10]: 0.178 | glycan array binding signal (z-score) [11]: -0.242 | glycan array binding signal (z-score) [12]: -0.248 | glycan array binding signal (z-score) [13]: -0.241 | glycan array binding signal (z-score) [14]: -0.163 | glycan array binding signal (z-score) [15]: -0.162 | glycan array binding signal (z-score) [16]: -0.161 | glycan array binding signal (z-score) [17]: -0.156 | glycan array binding signal (z-score) [18]: 0.06 | glycan array binding signal (z-score) [19]: -0.037 | glycan array binding signal (z-score) [20]: 0.923 | glycan array binding signal (z-score) [21]: 0.54 | glycan array binding signal (z-score) [22]: -0.137 | glycan array binding signal (z-score) [23]: 0.345 | glycan array binding signal (z-score) [24]: -0.242 | glycan array binding signal (z-score) [25]: -0.243 | glycan array binding signal (z-score) [26]: -0.243 | glycan array binding signal (z-score) [27]: -0.242 | glycan array binding signal (z-score) (Gal(b1-4)Gal): -0.162 | glycan array binding signal (z-score) [28]: -0.242 | glycan array binding signal (z-score) [29]: -0.239 | glycan array binding signal (z-score) (Gal(b1-4)Glc): -0.241
